Assay results published in paper PMC4990258, “Mutations at the Subunit Interface of Yeast Proliferating Cell Nuclear Antigen Reveal a Versatile Regulatory Domain” (PLoS ONE, 2016).
No constants are given. Whether binding was seen depends on the method and setting. Some entries that bind do so weakly or less than the wild type. Where a sequence is shown, tags or fusion partners need not be part of it.

B1: wild type PCNA (proliferating cell nuclear antigen, Saccharomyces cerevisiae) (natural protein, S. cerevisiae)
chain: MLEAKFEEASLFKRIIDGFKDCVQLVNFQCKEDGIIAQAVDDSRVLLVSLEIGVEAFQEYRCDHPVTLGMDLTSLSKILRCGNNTDTLTLIADNTPDSIILLFEDTKKDRIAEYSLKLMDIDADFLKIEELQYDSTLSLPSSEFSKIVRDLSQLSDSINIMITKETIKFVADGDIGSGSVIIKPFVDMEHPETSIKLEMDQPVDLTFGAKYLLDIIKGSSLSDRVGIRLSSEAPALFQFDLKSGFLQFFLAPKFNDEE
notes: PCNA (POL30 gene product), Saccharomyces cerevisiae, wild type; the oligomeric state of the purified protein was not measured here; also called wt PCNA; yeast PCNA; source: yeast BJ5464, overexpressed as GST fusion, purified on glutathione-Sepharose 4B, GST removed by PreScission protease; not shown: GST, N-terminal, cleaved

How the values were obtained:
[1] = target: T1, GST-Rev1-PAD (truncated Rev1, amino acids 623 to 767, including the polymerase-associated domain) (S. cerevisiae) (UniProt P12689); test: pull-down; GST-Rev1-PAD pull-down repeated with varying (50–150 mM) salt concentrations; data not shown; both purified
T1 sequence: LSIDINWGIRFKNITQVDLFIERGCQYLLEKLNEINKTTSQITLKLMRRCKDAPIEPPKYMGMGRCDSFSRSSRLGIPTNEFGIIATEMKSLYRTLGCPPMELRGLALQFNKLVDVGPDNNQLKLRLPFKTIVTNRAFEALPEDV

[2] = target: T1, GST-Rev1-PAD (truncated Rev1, amino acids 623 to 767, including the polymerase-associated domain) (S. cerevisiae); test: pull-down; GST-Rev1-PAD (5 μg) immobilised on glutathione-Sepharose beads, incubated with purified PCNA (5 μg) overnight on ice; 50 mM Tris/HCl pH 7.5, 100 mM NaCl, 1 mM EDTA, 1 mM DTT, 10% glycerol, 0.01% Nonidet P-40; five washes; eluted with 20 mM reduced glutathione; SDS-PAGE; both purified
[3] = target: T2, GST-Rev1 (full-length Rev1) (S. cerevisiae, UniProt P12689 1-985); test: pull-down; GST-Rev1 (5 μg) immobilised on glutathione-Sepharose beads, incubated with purified PCNA (3 μg) overnight on ice; 50 mM Tris/HCl pH 7.5, 100 mM NaCl, 1 mM EDTA, 1 mM DTT, 10% glycerol, 0.01% Nonidet P-40; five washes; eluted by PreScission protease cleavage of Rev1 from GST; SDS-PAGE; both purified
T2 construct: Rev1, yeast, full-length; Held on the beads by GST during the incubation; Rev1 was cut from GST by PreScission protease only at the elution step; not shown: GST, N-terminal, kept
T2 sequence (looked up): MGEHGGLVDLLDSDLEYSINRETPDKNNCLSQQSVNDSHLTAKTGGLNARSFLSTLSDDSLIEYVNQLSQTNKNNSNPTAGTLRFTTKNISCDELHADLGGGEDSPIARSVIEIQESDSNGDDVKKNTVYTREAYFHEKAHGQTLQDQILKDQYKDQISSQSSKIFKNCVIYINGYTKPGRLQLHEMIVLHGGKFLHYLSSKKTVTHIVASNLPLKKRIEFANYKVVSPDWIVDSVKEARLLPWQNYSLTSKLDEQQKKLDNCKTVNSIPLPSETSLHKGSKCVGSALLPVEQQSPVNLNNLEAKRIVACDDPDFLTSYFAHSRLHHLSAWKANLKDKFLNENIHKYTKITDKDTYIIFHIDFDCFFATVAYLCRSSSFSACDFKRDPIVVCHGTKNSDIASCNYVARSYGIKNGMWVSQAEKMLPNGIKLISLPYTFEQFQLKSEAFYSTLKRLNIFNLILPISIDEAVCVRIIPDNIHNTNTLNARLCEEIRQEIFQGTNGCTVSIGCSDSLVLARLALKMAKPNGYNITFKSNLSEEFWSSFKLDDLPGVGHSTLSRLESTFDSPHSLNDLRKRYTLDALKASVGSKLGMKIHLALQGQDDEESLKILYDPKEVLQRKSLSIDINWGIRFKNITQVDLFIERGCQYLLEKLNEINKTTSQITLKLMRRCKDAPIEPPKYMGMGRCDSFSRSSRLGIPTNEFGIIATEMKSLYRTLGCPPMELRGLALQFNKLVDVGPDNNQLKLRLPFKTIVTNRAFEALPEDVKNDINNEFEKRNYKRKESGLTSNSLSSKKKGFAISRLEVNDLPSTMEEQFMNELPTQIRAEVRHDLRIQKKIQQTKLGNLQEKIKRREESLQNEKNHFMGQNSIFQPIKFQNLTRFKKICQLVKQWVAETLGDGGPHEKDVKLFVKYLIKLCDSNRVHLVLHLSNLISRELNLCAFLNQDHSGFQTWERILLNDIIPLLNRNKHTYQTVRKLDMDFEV

[4] = target: T3, GST-Rad54 (S. cerevisiae) (UniProt P32863); test: pull-down; GST-Rad54 pull-down under different reaction conditions, 50–150 mM salt concentrations; data not shown; both purified
T3 sequence: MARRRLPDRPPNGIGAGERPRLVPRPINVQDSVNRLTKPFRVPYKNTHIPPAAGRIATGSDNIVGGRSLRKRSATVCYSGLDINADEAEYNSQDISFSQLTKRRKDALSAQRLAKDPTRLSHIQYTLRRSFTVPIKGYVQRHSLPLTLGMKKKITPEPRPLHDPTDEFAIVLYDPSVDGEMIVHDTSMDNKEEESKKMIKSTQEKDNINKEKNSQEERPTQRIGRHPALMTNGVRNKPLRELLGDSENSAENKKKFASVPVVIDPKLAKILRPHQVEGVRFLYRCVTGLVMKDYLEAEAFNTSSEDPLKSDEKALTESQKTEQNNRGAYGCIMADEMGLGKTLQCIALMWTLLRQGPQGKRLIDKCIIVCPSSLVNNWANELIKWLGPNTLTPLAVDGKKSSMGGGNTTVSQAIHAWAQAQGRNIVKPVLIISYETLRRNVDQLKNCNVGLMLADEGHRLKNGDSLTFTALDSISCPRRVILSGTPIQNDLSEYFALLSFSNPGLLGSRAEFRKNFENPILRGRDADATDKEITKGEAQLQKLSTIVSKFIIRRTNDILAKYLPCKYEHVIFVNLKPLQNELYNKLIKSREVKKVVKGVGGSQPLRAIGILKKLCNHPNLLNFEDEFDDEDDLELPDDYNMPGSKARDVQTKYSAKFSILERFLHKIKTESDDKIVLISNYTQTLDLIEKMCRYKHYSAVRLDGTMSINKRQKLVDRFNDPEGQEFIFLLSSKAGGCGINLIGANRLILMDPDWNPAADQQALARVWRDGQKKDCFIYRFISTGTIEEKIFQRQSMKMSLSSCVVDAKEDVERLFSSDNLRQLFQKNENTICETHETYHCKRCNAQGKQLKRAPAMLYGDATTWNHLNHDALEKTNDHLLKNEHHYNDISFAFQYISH

[5] = target: T3, GST-Rad54 (S. cerevisiae); test: pull-down; GST-Rad54 (3 μg) immobilised on glutathione-Sepharose beads, incubated with purified PCNA (5 μg) overnight on ice; 50 mM Tris/HCl pH 7.5, 100 mM NaCl, 1 mM EDTA, 1 mM DTT, 10% glycerol, 0.01% Nonidet P-40; five washes; eluted with 20 mM reduced glutathione; SDS-PAGE; both purified

Row | Molecule | binding [1] | binding [2] | binding [3] | binding [4] | binding [5]
1 | II99,100AA mutant PCNA (from UniProt P15873 1-258) | binds | binds | no binding (tested: 3 μg PCNA with 5 μg GST-Rev1) |  | 
2 | II181,182AA mutant PCNA (from UniProt P15873 1-258) |  |  |  | binds | binds
3 | B1 | binds | binds |  | binds | binds
